The supplement of paper PMC10126150
Values marked as one replicate rest on one cluster of the flow cell; about a third of the high ones do not repeat.

Tested on: ATP
Assay: switch fluorescence ratio, 500 uM ATP over buffer (Cy3 cluster intensity, sum of 5 cycles each) (fold (ratio)); higher = stronger signal-on switching upon ATP binding; sequences stand for … in TCGTCGGCAGCGTCAGATGTGTATAAGAGACAGTTTTTTTTTTTTTTTTTTTTTTTTT…TC
Conditions: aptamer strand: ATP DNA aptamer (quencher-CACCTGGGGGAGTATTGCGGAGGAAGG + anchor), 100 nM annealed; ATP concentration: 500 uM; one replicate
Procedure, shortened: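 Switching-strand clusters labelled with Cy3 on a modified Illumina MiSeq flow-cell were annealed to 100 nM quencher-labelled ATP aptamer, imaged in selection buffer, and re-imaged after 15 min with 500 uM ATP at 22 °C. This was done over five cycles with NaOH stripping and re-annealing in between. The fluorescence ratio is summed target-cycle over summed buffer-cycle Cy3 intensity per cluster, averaged per switch-domain sequence, excluding clusters outside 100-1000 RFU.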
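Further: ATP exposure 15 min at 22 °C before imaging.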

GGAACTGGTC gave a switch fluorescence ratio of 1.01.
CGGCGGGCGG was tested, and the switch fluorescence ratio was 0.961.
TTTTGAATAG showed a switch fluorescence ratio of 0.972.
Sequence TCGGGGCGTT has a switch fluorescence ratio of 1.
With GCTAGCAACT the switch fluorescence ratio was 1.01.
For CTAGGCTAGA, the switch fluorescence ratio was 1.04.
In the case of GCTTTGGAA, the switch fluorescence ratio is reported as 1.05.
Sequence CTGGACAGTC has a switch fluorescence ratio of 1.05.
For TAACGAGTGC, the switch fluorescence ratio was 1.01.
Work on CCGTCACGTC yielded a switch fluorescence ratio of 1.33.
TCAAGGACTT was tested, and the switch fluorescence ratio was 0.993.
ATGAATTAAT gave a switch fluorescence ratio of 0.968.
In the case of TTGCAGGTTG, the switch fluorescence ratio is reported as 1.01.
In the case of AAAAGGGT, the switch fluorescence ratio is reported as 1.02.
With ACGAGGATAT the switch fluorescence ratio was 1.03.
CGCCTGCGAG gave a switch fluorescence ratio of 0.984.
AGCTTGCACG gave a switch fluorescence ratio of 1.06.
CCGGAGAATG was tested, and the switch fluorescence ratio was 2.42.
CCGTATTCGA was tested, and the switch fluorescence ratio was 1.09.
For AACCATGCCA, the switch fluorescence ratio was 0.991.
For ATAACGTGTA, the switch fluorescence ratio was 0.987.
For GACAGTCACA, the switch fluorescence ratio was 1.01.
For GGGGAACAT, the switch fluorescence ratio was 1.01.
TCGGTGGAAA gave a switch fluorescence ratio of 1.06.
With AGGGCGGTAC the switch fluorescence ratio was 1.21.
For AGGTAGGAAT, the switch fluorescence ratio was 0.992.
Work on TTAATCCGCC yielded a switch fluorescence ratio of 1.99.
Sequence GCTTCACGAG has a switch fluorescence ratio of 0.988.
TACGGATTTG gave a switch fluorescence ratio of 1.01.
For TAACTGGAAC, the switch fluorescence ratio was 1.06.
CTCGGTACGC was tested, and the switch fluorescence ratio was 0.99.
CGAGGGATAA was tested, and the switch fluorescence ratio was 1.29.
Work on ACATGATTGT yielded a switch fluorescence ratio of 0.982.
For AGATTGAACA, the switch fluorescence ratio was 0.992.
ACGTGGGCAC gave a switch fluorescence ratio of 1.04.
For GTGCGCTTAA, the switch fluorescence ratio was 1.05.
For AGAGTGACCG, the switch fluorescence ratio was 0.881.
With GTTACCGGTA the switch fluorescence ratio was 1.02.
AATCAGCAGG showed a switch fluorescence ratio of 1.06.
TTGTTTGCG gave a switch fluorescence ratio of 1.01.
GAGGCCAAGA gave a switch fluorescence ratio of 1.
In the case of CTGATGCCTT, the switch fluorescence ratio is reported as 0.99.
In the case of TTGTACTGGT, the switch fluorescence ratio is reported as 1.02.
Work on AACTACAGCG yielded a switch fluorescence ratio of 1.03.
In the case of TCCTTGATCA, the switch fluorescence ratio is reported as 1.03.
TGCGAAAGGT gave a switch fluorescence ratio of 0.947.
CACAGATTGA gave a switch fluorescence ratio of 0.991.
For TTCTCCTGAG, the switch fluorescence ratio was 1.1.
With TGCTTTGCCA the switch fluorescence ratio was 1.01.
Work on TACCAGAAAT yielded a switch fluorescence ratio of 1.03.
GCAAGAGCAC was tested, and the switch fluorescence ratio was 1.03.
For AGCGGTAGC, the switch fluorescence ratio was 0.942.
Work on GAGGCCTAGG yielded a switch fluorescence ratio of 1.03.
For TGAGGAAGTT, the switch fluorescence ratio was 1.02.
With ACTGTGGGCC the switch fluorescence ratio was 0.982.
Work on GTACACGCCG yielded a switch fluorescence ratio of 1.03.
For AACGTCCTGA, the switch fluorescence ratio was 1.04.
ATAAGAATGC was tested, and the switch fluorescence ratio was 1.
TCCAAGTTGC showed a switch fluorescence ratio of 1.1.
Sequence ATATCCCTAG has a switch fluorescence ratio of 1.01.
GTAGTAGTAC showed a switch fluorescence ratio of 3.04.
With CCCTCCTGTT the switch fluorescence ratio was 1.74.
For TAACTTTTGT, the switch fluorescence ratio was 0.958.
Sequence TGTTATAC has a switch fluorescence ratio of 1.1.
Sequence TGGAAACGAA has a switch fluorescence ratio of 0.988.
Work on TTGCTCGGGG yielded a switch fluorescence ratio of 1.
For AGCGGAAGG, the switch fluorescence ratio was 1.02.
Work on GATGTAGCGA yielded a switch fluorescence ratio of 1.15.
TTAGGTAGCG gave a switch fluorescence ratio of 0.964.
In the case of CAGAAGGCAA, the switch fluorescence ratio is reported as 3.52.
Work on GTTGTTAATG yielded a switch fluorescence ratio of 0.981.
For ACGGAAAAAA, the switch fluorescence ratio was 1.05.
TAGTCCAAAC gave a switch fluorescence ratio of 0.993.
Work on TAGGTGCCCT yielded a switch fluorescence ratio of 1.06.
For GGGATGCTAT, the switch fluorescence ratio was 1.03.
TGGTTTATCC was tested, and the switch fluorescence ratio was 1.04.
Work on CATCCTCATG yielded a switch fluorescence ratio of 1.22.
AAACTTGTTG gave a switch fluorescence ratio of 1.03.
GCCTTTAAGT was tested, and the switch fluorescence ratio was 0.976.
AATAGCGCAA showed a switch fluorescence ratio of 3.2.
AGAATTCCGA gave a switch fluorescence ratio of 1.01.
CGTTTTTCCA gave a switch fluorescence ratio of 1.
TTCGAGTTAG was tested, and the switch fluorescence ratio was 1.01.
For ACGGCGCAA, the switch fluorescence ratio was 1.12.
TGACTAGCGG showed a switch fluorescence ratio of 0.931.
Sequence AGCTGGACTA has a switch fluorescence ratio of 1.02.
Work on GATAAGGGGG yielded a switch fluorescence ratio of 0.957.
Sequence TGAGGGTC has a switch fluorescence ratio of 1.06.
GATATCACGT was tested, and the switch fluorescence ratio was 0.992.
Sequence TTAACTTGGC has a switch fluorescence ratio of 1.19.
In the case of ATGTTCTCTA, the switch fluorescence ratio is reported as 1.
Sequence TGGAGCTCAC has a switch fluorescence ratio of 1.44.
In the case of GCTGCCGGCG, the switch fluorescence ratio is reported as 0.995.
With TAGCCAACTG the switch fluorescence ratio was 0.966.
Sequence TAATTACCAG has a switch fluorescence ratio of 1.01.
With TCAAATCAGC the switch fluorescence ratio was 1.02.
TGCATCGGC was tested, and the switch fluorescence ratio was 1.18.
With TGCGCCTCA the switch fluorescence ratio was 0.951.
CGCTAGAAGA gave a switch fluorescence ratio of 0.983.
TCGCTAAAAG gave a switch fluorescence ratio of 1.
CCGCGGAAG was tested, and the switch fluorescence ratio was 1.04.
Work on CCGGCTGC yielded a switch fluorescence ratio of 1.22.
Sequence GTTCATAATG has a switch fluorescence ratio of 1.
For TGCCTGATCG, the switch fluorescence ratio was 0.985.
With CACGTGGTGT the switch fluorescence ratio was 0.998.
ACTGGTAAA gave a switch fluorescence ratio of 0.993.
In the case of TGGCCGTCTT, the switch fluorescence ratio is reported as 0.879.
CCCACTACCA was tested, and the switch fluorescence ratio was 1.18.
For TAGACGGCAG, the switch fluorescence ratio was 1.03.
CAGAAGGAGA gave a switch fluorescence ratio of 0.952.
In the case of CCTACTATTC, the switch fluorescence ratio is reported as 1.2.
TGAGATTTGG gave a switch fluorescence ratio of 0.951.
In the case of CCATGCGCTG, the switch fluorescence ratio is reported as 1.25.
With TAGGCGGGT the switch fluorescence ratio was 0.987.
ACTAGGGCG gave a switch fluorescence ratio of 1.04.
GAGCATTTAA gave a switch fluorescence ratio of 1.04.
For TTCACATATT, the switch fluorescence ratio was 1.03.
CAACTGTATG gave a switch fluorescence ratio of 1.08.
Work on AAGAACTAAT yielded a switch fluorescence ratio of 1.03.
TTTGCAAGAC was tested, and the switch fluorescence ratio was 3.88.
Sequence AAGTCGAATC has a switch fluorescence ratio of 1.03.
CGATGAGGGA gave a switch fluorescence ratio of 0.984.
Sequence CAATTCTTAG has a switch fluorescence ratio of 1.01.
AATCTTTAAC showed a switch fluorescence ratio of 1.01.
Sequence TCATTGCGGG has a switch fluorescence ratio of 1.
AACATAGCGA was tested, and the switch fluorescence ratio was 1.06.
Sequence AATCCTAATT has a switch fluorescence ratio of 0.986.
AAAAACAACG gave a switch fluorescence ratio of 0.994.
Work on AACATCCTGC yielded a switch fluorescence ratio of 1.05.
TTATCTAAC showed a switch fluorescence ratio of 1.03.
AAGGGTTCT was tested, and the switch fluorescence ratio was 1.
AAGGTTAAAT gave a switch fluorescence ratio of 0.978.
CGCGATAAAC was tested, and the switch fluorescence ratio was 1.8.
TATCCGCTAA gave a switch fluorescence ratio of 3.89.
GATACGCTCA gave a switch fluorescence ratio of 1.05.
GCATCTAGG was tested, and the switch fluorescence ratio was 1.12.
With AGAGTTGCGA the switch fluorescence ratio was 1.02.
ATTAGAACGC gave a switch fluorescence ratio of 1.08.
GTGGGTAAGA showed a switch fluorescence ratio of 1.02.
Sequence TCTGGCTAGT has a switch fluorescence ratio of 0.976.
GGGCTCCTTC showed a switch fluorescence ratio of 1.06.
For GCCCACGGGT, the switch fluorescence ratio was 1.12.
CACTGGACTA showed a switch fluorescence ratio of 1.15.
Sequence CTTATTAGTC has a switch fluorescence ratio of 0.98.
Work on TATACCGTGC yielded a switch fluorescence ratio of 1.12.
For ATAAAAGATA, the switch fluorescence ratio was 1.01.
For TTTACATGTA, the switch fluorescence ratio was 0.99.
Work on TGGCAGCCTG yielded a switch fluorescence ratio of 1.02.
AATCCTATTA showed a switch fluorescence ratio of 0.936.
CGTCAGAC gave a switch fluorescence ratio of 1.2.
With GCAGGAAGCT the switch fluorescence ratio was 1.02.
Sequence GATTATTTCT has a switch fluorescence ratio of 1.01.
In the case of TGGCTTGTCG, the switch fluorescence ratio is reported as 1.01.
TTCCCCAATG was tested, and the switch fluorescence ratio was 1.15.
For AAAAAAGGAG, the switch fluorescence ratio was 0.99.
Work on AATAAAGACT yielded a switch fluorescence ratio of 0.984.
In the case of CAATGTGTT, the switch fluorescence ratio is reported as 1.01.
Sequence CAAGATTTAG has a switch fluorescence ratio of 0.991.
